We go through 90 compounds from publication PMC4336329 (PLoS ONE, 2015).

Out of some 310,000 compounds screened, about 14,000 (4.5%) showed an effect of 50% or more. Effects have a minus sign here. The list shows a part of the results.
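Further: peak tail current of the secondary pulse compared with the same well before compound.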

The target of this experiment is human ether-à-go-go-related gene (hERG) potassium channel (human, UniProt Q12809). Kind of experiment: primary screen, population patch clamp on CHO cells stably expressing hERG.
Chain of human ether-à-go-go-related gene (hERG) potassium channel (Q12809 whole entry, looked up): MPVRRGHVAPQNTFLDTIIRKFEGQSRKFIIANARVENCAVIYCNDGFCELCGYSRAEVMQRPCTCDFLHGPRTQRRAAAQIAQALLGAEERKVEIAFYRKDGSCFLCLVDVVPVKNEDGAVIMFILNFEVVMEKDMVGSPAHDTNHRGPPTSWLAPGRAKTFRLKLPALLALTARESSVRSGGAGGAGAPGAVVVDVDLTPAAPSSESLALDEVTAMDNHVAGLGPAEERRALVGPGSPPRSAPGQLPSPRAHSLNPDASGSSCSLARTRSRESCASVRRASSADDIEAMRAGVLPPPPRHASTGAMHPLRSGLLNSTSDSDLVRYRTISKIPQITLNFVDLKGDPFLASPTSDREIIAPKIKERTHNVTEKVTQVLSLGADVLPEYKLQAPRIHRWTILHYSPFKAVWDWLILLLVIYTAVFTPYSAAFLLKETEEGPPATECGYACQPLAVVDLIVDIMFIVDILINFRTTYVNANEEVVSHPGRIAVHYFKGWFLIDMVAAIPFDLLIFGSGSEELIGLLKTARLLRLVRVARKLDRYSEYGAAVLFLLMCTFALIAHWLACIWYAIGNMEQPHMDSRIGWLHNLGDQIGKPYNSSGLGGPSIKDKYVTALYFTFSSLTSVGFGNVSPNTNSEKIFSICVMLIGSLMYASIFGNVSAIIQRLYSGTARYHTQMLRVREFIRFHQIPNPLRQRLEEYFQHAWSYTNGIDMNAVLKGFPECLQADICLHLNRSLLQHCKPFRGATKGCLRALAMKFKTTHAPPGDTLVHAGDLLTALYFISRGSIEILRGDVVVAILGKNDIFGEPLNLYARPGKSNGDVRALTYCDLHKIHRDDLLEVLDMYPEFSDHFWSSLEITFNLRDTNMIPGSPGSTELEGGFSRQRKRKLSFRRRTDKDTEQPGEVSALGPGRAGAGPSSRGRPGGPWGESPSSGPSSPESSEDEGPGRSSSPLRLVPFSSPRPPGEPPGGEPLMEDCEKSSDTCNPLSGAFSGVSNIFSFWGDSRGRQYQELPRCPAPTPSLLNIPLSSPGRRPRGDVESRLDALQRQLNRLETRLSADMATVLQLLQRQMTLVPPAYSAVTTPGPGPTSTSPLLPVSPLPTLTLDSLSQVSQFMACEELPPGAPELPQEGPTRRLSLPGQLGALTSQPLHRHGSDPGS
Turning to `CCc1nc(SCC(=O)NNC(=O)C2CCCCC2)c2ccccc2n1`, the “hERG current change (%, negative = inhibition) at 10uM” value was -3.6%.
The result for `COc1ccc(CN2CCN(Cc3ccccc3)CC2)c(OC)c1` reads -69.9%; that for `Cc1ccc(-n2nnnc2-c2cccnc2)cc1`, -8.25%; that for `Cc1ccc(C(=O)Nn2cnnc2)cc1S(=O)(=O)N1CCOCC1`, -1.94%.
In the case of `Cc1ccc(Oc2nc3c(c(=O)n(C)c(=O)n3C)n2C)cc1C` it was -7.1%; in that of `CC[C@@]1(c2cccc(C)c2)C(=O)N(C(=O)OC)N1C(=O)OC`, 21.8%; in that of `Nc1ccc(S(=O)(=O)Nc2nccc(/C=C/c3ccc(Br)s3)n2)cc1`, 13.7%.
With `O=C(c1cccs1)n1nc(-c2ccccc2)nc1NCc1ccco1`, the “hERG current change (%, negative = inhibition) at 10uM” value is -9.9%.
The result for `O=C(COc1cccc2ccccc12)Nc1nc2ccccc2[nH]1` reads 7.7%; that for `COCCn1ccc2c(OCC(=O)Nc3cccc(NC(C)=O)c3)cccc2c1=O`, 1.01%; that for `Cc1nc(-c2ccccc2)sc1C1(C)CC(c2c(Cl)cccc2Cl)=NO1` (stereo not drawn), 13.1%.
The result for `O=C(COc1ccc2c(c1)OCO2)Nc1ccccc1F` reads 5.18%.
The result for `Br.N=c1c2c(n(Cc3ccc(Br)cc3)c3c1CCC3)CCCC2` reads -21.5%; that for `COc1cc(C(c2c(C)[nH][nH]c2=O)c2c(C)[nH][nH]c2=O)cc(Br)c1OC`, 5.3%; that for `CC(NC(=O)NC(=O)c1cccc([N+](=O)[O-])c1)C1CC1` (stereo not drawn), 10.7%.
Consider `COc1cccc(CN2CCCC(C(=O)N3CCCCC3)C2)c1OC.O=C(O)C(=O)O` (stereo not drawn), for which the “hERG current change (%, negative = inhibition) at 10uM” value was -26.3%.
Take `Cc1noc(C)c1C(=O)NCCCN1CCCC1=O`: the “hERG current change (%, negative = inhibition) at 10uM” value is 4.95%.
In the case of `O=C(CCSCc1cccc(Cl)c1)NCCc1ccc(Cl)cc1` it was 4.09%; in that of `CCOC(=O)C1CCN(Cc2nc3ccccc3c(=O)n2-c2ccc(F)cc2)CC1`, -24.9%.
The result for `COc1ccc(NC(=O)C(NC(C)=O)C(=O)NCc2ccccc2OC)cc1` (stereo not drawn) reads -1.36%; that for `CCOC(=O)C1CCCN(Cc2nc(N)nc(Nc3ccccc3OC)n2)C1` (stereo not drawn), -70.8%.
Take `O=C(Nc1cc(Cl)ccc1N1CCOCC1)c1ccco1`: the “hERG current change (%, negative = inhibition) at 10uM” value was -2.8%.
The result for `O=C(/C=C/c1ccco1)Nc1ccc(Oc2ccccc2)cc1` reads -5.74%; that for `O=C1CC(Nc2ccccc2)C(=O)N1Cc1ccccc1` (stereo not drawn), 3.61%; that for `O=C1CN(c2nnnn2-c2ccccc2)CCN1`, -6.89%.
Consider `Cc1[nH]n(-c2ccccc2)c(=O)c1-c1cccc(Cl)c1`, for which the “hERG current change (%, negative = inhibition) at 10uM” value turned out to be 31.7%.
On to `CCCn1c2ccc(F)cc2c2nnc(NN)nc21`, for which the “hERG current change (%, negative = inhibition) at 10uM” value is -1.94%.
In the case of `Cc1cccc(N2CCN(c3ccc(NC(=O)/C=C(/C(=O)O)c4ccccc4)cc3)CC2)c1` it was 15.7%; in that of `COc1ccc([N+](=O)[O-])cc1NC(=O)C(C)N1CCN(C(=O)c2ccco2)CC1` (stereo not drawn), -7.41%; in that of `Cc1cccc(Nc2nc(C)nc3c2oc2ccccc23)c1.Cl`, -7.37%.
In the case of `C=CCn1c(C)cc(C(=O)CSc2ccc(NC(C)=O)cc2)c1C` it was -0.616%.
As to `COC(=O)CNC(=O)CNC(=O)c1nn(-c2ccc(OC)c(Cl)c2)c(=O)c2ccccc12`, the “hERG current change (%, negative = inhibition) at 10uM” value was found to be 15.7%.
The result for `O=C(/C=C/c1ccc(Cl)c(Cl)c1)N1CCc2ccccc21` reads 6.26%.
The result for `CC(C)CNC(=S)NC(=O)c1ccc(F)cc1` reads 5.45%.
In the case of `COc1ccc(-c2noc(C(C)NC(=O)c3ccco3)n2)cc1OC` (stereo not drawn) it was 8.32%.
Regarding `Cc1ccc(NC2SC(=O)N(Cc3cccc(C(=O)O)c3)C2=O)c(C)c1` (stereo not drawn), the “hERG current change (%, negative = inhibition) at 10uM” value stood at 14.2%.
The result for `COc1ccc(-c2csc3nc(C)nc(N4CCN(C(C)=O)CC4)c23)cc1OC` reads -4.58%; that for `CCOc1nc2cnccc2n(CC(=O)Nc2cccc(C)c2)c1=O`, 13.3%.
The result for `Cc1cc(C)c(S(=O)(=O)Nc2ccc3[nH]c(=O)[nH]c3c2)c(C)c1` reads 2.9%; that for `O=C(CN(C(=O)CCC(=O)Nc1nccs1)c1cccc(F)c1)NCc1ccc2c(c1)OCO2`, 11.1%.
Take `O=C(Nc1ccccc1)N(Cc1ccccc1)C1=NCCS1`: the “hERG current change (%, negative = inhibition) at 10uM” value came to 5.37%.
The result for `CCOC(=O)C1CCN(c2cc(=O)n(C3CCCCC3)c(=O)[nH]2)CC1` reads 0.521%.
As for `Cc1nc2nc(SCC(=O)NCc3ccco3)nn2c(C)c1Cc1c(F)cccc1Cl`, the “hERG current change (%, negative = inhibition) at 10uM” value is listed as -49.3%.
In the case of `CCCn1cnc2cc(NCc3cccc(OC)c3O)ccc21` it was -29.3%; in that of `O=C(CCS(=O)(=O)c1ccccc1Cl)NCCC1=CCCCC1`, -0.865%.
The result for `Cc1cc(NS(=O)(=O)c2ccc(NC(=O)CCCOc3cccc(C)c3C)cc2)no1` reads 7.68%; that for `CCc1ccc(NC(=O)CCC(=O)c2ccc(C)cc2)cc1`, 44.7%; that for `COc1ccccc1C1=NOC(C)(c2sc(-c3ccccc3)nc2C)C1` (stereo not drawn), 21.7%.
The result for `Nn1c(SCC(=O)N2CCOCC2)nnc1-c1ccco1` reads 9.77%.
As to `O=C(CN1C(=O)c2cccc3cccc1c23)Nc1ccc(S(=O)(=O)Nc2nccs2)cc1`, the “hERG current change (%, negative = inhibition) at 10uM” value is given as 0.913%.
With `Cc1ccc(S(=O)(=O)N2CCCC2)cc1C(=O)NCC(C)(C)N1CCOCC1`, the “hERG current change (%, negative = inhibition) at 10uM” value stood at 16.5%.
Consider `O=C(NNC(=O)c1ccccc1[N+](=O)[O-])c1csc(N2CCOCC2)n1`, for which the “hERG current change (%, negative = inhibition) at 10uM” value is given as 4.44%.
Take `CCc1nnc(NC(=O)Cc2ccc(Br)cc2)s1`: the “hERG current change (%, negative = inhibition) at 10uM” value stood at 12.4%.
For the compound `O=C1C=C(O)CC(c2cccs2)C1` (stereo not drawn), the “hERG current change (%, negative = inhibition) at 10uM” value came to 21.4%.
The result for `COc1ccc(CN(Cc2cc3cc(OC)c(OC)cc3[nH]c2=O)C(=O)NC2CCCCC2)cc1` reads 7.13%.
Turning to `CC1CN(c2ncc(/C=N/NC(=O)c3ccccc3O)s2)CC(C)O1` (stereo not drawn), the “hERG current change (%, negative = inhibition) at 10uM” value came to 8.4%.
As to `COC(=O)c1scc(C)c1-n1ccc(C(=O)C(=O)N(C)C)c1`, the “hERG current change (%, negative = inhibition) at 10uM” value is listed as 5.31%.
Regarding `c1csc(-c2nn[nH]n2)c1`, the “hERG current change (%, negative = inhibition) at 10uM” value came out at 7.73%.
For the compound `O=c1[nH]c2ccc(Cl)cc2c(-c2ccccc2)c1CN1CCOCC1`, the “hERG current change (%, negative = inhibition) at 10uM” value is given as -14.7%.
In the case of `COc1ccccc1NC(=S)N(Cc1ccco1)Cc1cc2cccc(C)c2[nH]c1=O` it was -3.84%; in that of `Cc1ncoc1C(=O)N1CCCC(N2CCN(c3ccccc3F)CC2)C1` (stereo not drawn), 0.468%.
The result for `CCOc1cccc(CN2CCCC(N3CCN(c4cccc(Cl)c4)CC3)C2)c1O` (stereo not drawn) reads -58.7%; that for `COC(=O)c1ccc(NC(=S)Nc2ccccc2)cc1`, 2.01%; that for `CCOC(=O)C1=C(CS(=O)(=O)c2ccccc2)NC(=O)NC1c1ccc(O)c(OC)c1` (stereo not drawn), 14.9%.
In the case of `O=C1c2ccccc2-c2cccc(C(=O)N3CCN(C(=O)c4ccccc4)CC3)c21`, the “hERG current change (%, negative = inhibition) at 10uM” value was -40.4%.
The result for `CCCN(CC(=O)Nc1ccccc1C)C(=O)c1ccc2c(c1)S(=O)(=O)N=C1CCCCCN12` reads 8.62%; that for `CCC(C(=O)N(C(C)C)C(C)C)c1ccccc1` (stereo not drawn), 7.45%; that for `COc1ccc(C(C)=O)cc1CN1CC=C(c2ccccc2)CC1`, -17%.
Take `Cc1cc(C(=O)Nc2c(C)n(C)n(-c3ccccc3)c2=O)on1`: the “hERG current change (%, negative = inhibition) at 10uM” value is recorded as 11.6%.
The result for `Cc1nc2c3cc(F)ccc3n(Cc3ccccc3)c2s1` reads 4.24%; that for `COc1cc2c(cc1OC)C(c1ccc(C)o1)CC(=O)N2` (stereo not drawn), -4.15%; that for `O=C(COC(=O)c1cnccn1)Nc1cccc2ccccc12`, -14.6%.
The result for `CC(C(=O)Nc1sc2c(c1C#N)CCCCC2)N1C(=O)c2ccccc2C1=O` (stereo not drawn) reads -14.1%; that for `CCOc1ccccc1CN1CCN(Cc2[nH]c3ccccc3c2C)CC1CCO` (stereo not drawn), -62.3%.
The result for `C=CCNC(=O)COc1ccc(Oc2ccccc2)cc1` reads -47.5%; that for `Cc1cccc(NC(=O)CCCNC(=O)c2ccc(Cl)cc2)n1`, 11.8%.
In the case of `O=C1C=C(NC2CCCC2)CC(c2ccccc2)C1` (stereo not drawn), the “hERG current change (%, negative = inhibition) at 10uM” value is listed as -3.55%.
Turning to `CC(=O)NC(CC(=O)N(Cc1ccccc1)c1cccc(C)c1)c1ccccc1` (stereo not drawn), the “hERG current change (%, negative = inhibition) at 10uM” value is recorded as -14.2%.
In the case of `COc1cc2c3nc4n(c(=O)c3n(CC(=O)NCC3CCCO3)c2cc1OC)CCS4` (stereo not drawn) it was 19.2%; in that of `COc1ccc(C(CNC(=O)COc2ccccc2OC)N2CCCCC2)cc1` (stereo not drawn), -19.5%; in that of `Cc1cccc(NC(=O)c2cc(-c3c(C)cc(C)cc3O)n[nH]2)c1`, 19.6%.
Take `CC(=O)N/N=C/c1cc(C(C)C)cc(/C=N/NC(C)=O)c1O`: the “hERG current change (%, negative = inhibition) at 10uM” value is reported as 22.3%.
The result for `CCN1CCN(C(=O)c2cc3cc4ccc(OC)cc4nc3s2)CC1` reads -23.2%; that for `COc1ccc(NC(C)C(=O)N/N=C/c2ccccc2OCc2ccc(Br)cc2)cc1` (stereo not drawn), 2.49%.
The result for `Cc1ccc(C#N)c(SCc2ccccc2[N+](=O)[O-])n1` reads 2.72%; that for `CCOc1ccc(S(=O)(=O)N(C)CC(=O)N2CCCC2)cc1`, 12.3%; that for `NC(=O)C1(N2CCCCC2)CCN(C(=O)c2cccn3c(=O)c4cc(Cl)ccc4nc23)CC1`, -30.1%.
In the case of `CCC(CC)NC(=O)c1ccc(NS(=O)(=O)c2ccc3[nH]c(=O)[nH]c3c2)cc1`, the “hERG current change (%, negative = inhibition) at 10uM” value is listed as 12.3%.
In the case of `CC1=C(C)CC(C(=O)NNC(=O)c2csc(C)c2C)C(C(=O)O)C1` (stereo not drawn), the “hERG current change (%, negative = inhibition) at 10uM” value is 11.5%.
`O=C(CC1C(=O)NCCN1CC1CCCCC1)NCc1cc(F)ccc1F` (stereo not drawn): the “hERG current change (%, negative = inhibition) at 10uM” value came to 1.77%.
